# Test results: the supplement of paper PMC7826260
# This is one part of the list. Cleavage of a single-stranded DNA pool by Rep nickase domains was read by sequencing for 1 h at 37 °C with 3 µM enzyme; only the middle of the 90-letter strands is printed. The score is log2 (uncut reads / reads without enzyme); uncut sequences lie near 0, cut ones below; no hit call is given. Counts are relative to all reads; uncut strands gain when others are lost, and binding without cutting may add a little.
# Key:
# Test in all cases: uncleaved DNA left, log2 of reads against the no-enzyme library (log2 ratio); higher = less cleavage (more negative = more Rep cleavage of the k-mer); sequences stand for … in CTCGTCCG…ACCGGAGA
# [1] = tested on: T1, Rep nickase domain of Muscovy duck circovirus
# T1 sequence (residues 1-111, tag not shown): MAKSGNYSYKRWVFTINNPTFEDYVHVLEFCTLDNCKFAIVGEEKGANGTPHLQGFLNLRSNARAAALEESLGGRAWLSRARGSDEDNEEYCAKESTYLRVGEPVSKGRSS
# Experimental: (§1)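 A pool of 90-nt single-stranded DNAs with seven random bases just before the constant AC of the nick site (name = the seven bases) was cut by 3 µM recombinant His6-SUMO-tagged Rep nickase domain (300 nM DNA, 50 mM HEPES pH 8.0, 50 mM NaCl, 1 mM MnCl2, 1 h, 37 °C, three replicates). Uncut DNA was amplified and sequenced.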
# [2] = tested on: T2, Rep nickase domain of banana bunchy top virus
# T2 sequence (residues 1-94, tag not shown): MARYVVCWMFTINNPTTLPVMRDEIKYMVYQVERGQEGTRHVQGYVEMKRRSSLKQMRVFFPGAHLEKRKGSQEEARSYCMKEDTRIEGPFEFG
# Experimental: as §1
# [3] = tested on: T3, Rep nickase domain of cabbage leaf curl virus
# T3 sequence (residues 1-116, tag not shown): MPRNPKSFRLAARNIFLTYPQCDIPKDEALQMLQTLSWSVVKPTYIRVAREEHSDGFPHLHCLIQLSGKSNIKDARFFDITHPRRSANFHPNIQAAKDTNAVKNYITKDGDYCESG
# Experimental: as §1
# [4] = tested on: T4, Rep nickase domain of chickpea chlorotic dwarf virus
# T4 sequence (residues 1-124, tag not shown): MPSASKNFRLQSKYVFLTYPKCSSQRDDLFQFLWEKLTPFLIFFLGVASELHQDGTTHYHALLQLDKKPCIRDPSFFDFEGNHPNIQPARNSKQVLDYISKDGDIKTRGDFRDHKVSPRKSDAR
# Experimental: as §1
# [5] = tested on: T5, Rep nickase domain of faba bean necrotic yellows virus
# T5 sequence (residues 1-98, tag not shown): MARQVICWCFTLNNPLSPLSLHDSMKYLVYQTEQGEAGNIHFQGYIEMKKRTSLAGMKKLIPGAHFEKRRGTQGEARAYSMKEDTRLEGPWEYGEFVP
# Experimental: as §1
# [6] = tested on: T6, Rep nickase domain of maize striate mosaic virus
# T6 sequence (residues 1-117, tag not shown): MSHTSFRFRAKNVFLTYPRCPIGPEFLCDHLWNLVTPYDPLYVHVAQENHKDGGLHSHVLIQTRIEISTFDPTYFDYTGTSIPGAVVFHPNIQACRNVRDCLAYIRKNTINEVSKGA
# Experimental: as §1
# [7] = tested on: T7, Rep nickase domain of porcine circovirus 2
# T7 sequence (residues 2-116, tag not shown): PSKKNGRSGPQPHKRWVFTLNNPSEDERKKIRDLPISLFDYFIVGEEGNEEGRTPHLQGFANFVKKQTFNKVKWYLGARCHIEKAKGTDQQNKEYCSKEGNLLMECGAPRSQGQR
# Experimental: as §1
# [8] = tested on: T8, Rep nickase domain of tomato golden mosaic virus
# T8 sequence (residues 1-124, tag not shown): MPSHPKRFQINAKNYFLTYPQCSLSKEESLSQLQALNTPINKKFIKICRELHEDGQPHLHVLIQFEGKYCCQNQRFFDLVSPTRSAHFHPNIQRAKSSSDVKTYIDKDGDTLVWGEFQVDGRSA
# Experimental: as §1
# [9] = tested on: T9, Rep nickase domain of tomato yellow leaf curl virus
# T9 sequence (residues 1-136, tag not shown): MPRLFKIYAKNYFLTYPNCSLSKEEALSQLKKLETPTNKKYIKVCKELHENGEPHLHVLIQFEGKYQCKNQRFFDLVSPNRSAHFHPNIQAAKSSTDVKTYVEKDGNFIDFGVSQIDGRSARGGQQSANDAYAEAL
# Experimental: as §1
# [10] = tested on: T10, Rep nickase domain of wheat dwarf virus
# T10 sequence (residues 1-137, tag not shown): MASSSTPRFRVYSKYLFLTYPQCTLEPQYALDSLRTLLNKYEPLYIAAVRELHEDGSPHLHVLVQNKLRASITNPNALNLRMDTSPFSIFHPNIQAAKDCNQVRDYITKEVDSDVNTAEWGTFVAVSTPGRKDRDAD
# Experimental: as §1
Sequence,uncleaved DNA left (log2) [1],uncleaved DNA left (log2) [2],uncleaved DNA left (log2) [3],uncleaved DNA left (log2) [4],uncleaved DNA left (log2) [5],uncleaved DNA left (log2) [6],uncleaved DNA left (log2) [7],uncleaved DNA left (log2) [8],uncleaved DNA left (log2) [9],uncleaved DNA left (log2) [10]
CTCTCAA,-0.112,-0.0291,-0.0524,-0.327,-0.24,-0.601,-0.0207,-0.09,-0.125,-0.188
AACTAAA,-0.0708,0.00665,-0.0707,-0.881,0.0703,-0.448,-1.42,0.0685,-0.02,0.0142
TTAAATG,0.0959,-0.00443,-0.385,-0.628,-0.00126,-1,0.17,0.0529,0.00768,-0.0365
ATCTTTA,-0.137,0.0101,-0.172,-1.64,0.121,-0.733,-0.337,0.00141,-0.0573,0.0356
GTATGGG,0.124,0.136,-0.116,-0.0616,0.0885,-0.301,0.142,0.117,0.119,0.0533
TTTAGAA,0.0904,0.0465,0.294,0.226,0.0775,0.169,0.104,0.119,0.123,0.137
AGCTCTG,0.0509,0.19,0.094,0.677,0.031,1.61,0.0937,0.117,-0.0506,0.0967
AGGAAAA,0.0993,0.0688,0.339,0.831,0.0821,0.4,0.135,0.0545,0.105,0.152
GCGGAAT,0.141,-0.027,0.741,1.69,-0.0332,2.02,0.0929,0.0435,0.099,0.178
GTCGTTG,0.0641,0.0503,0.247,0.721,-0.0342,1.52,0.0734,0.0925,-0.0377,0.00446
CATGTCT,0.015,-0.365,-0.517,-2.55,-0.0484,-1.07,-0.425,-0.0546,-0.0343,-0.165
CCACTTT,0.0885,-0.00308,-0.346,-2.55,0.0875,-0.906,-0.42,-0.0369,-0.0208,-0.234
TTACCCA,-0.18,0.0318,-0.0394,-2.15,-0.0372,-0.173,-1.84,-0.0617,0.0891,0.0116
ATATGCA,-0.0737,-0.0681,-0.624,-0.987,0.0702,-1.17,-0.0125,0.0537,0.111,-0.0509
AGTCATA,0.0465,0.0732,-0.019,-0.355,0.00505,0.0465,-1.02,0.0479,0.00167,0.0464
GTCCCTA,-0.133,0.0619,0.256,0.772,-0.0113,1.67,0.0358,0.137,0.0874,0.0773
ATTCGGG,0.141,-0.0661,-0.255,-0.216,0.0845,-0.87,0.238,0.00959,0.00406,-0.0774
GTGAAGT,0.0753,0.075,0.3,0.831,-0.0321,0.729,0.0356,0.0611,0.0728,0.169
TACTAGA,-0.0968,-0.152,-0.333,-1.09,-0.0309,-0.97,-1.11,0.0544,-0.0174,-0.0133
AAAGCTT,-0.138,-0.0795,-0.329,-1.04,-0.108,1.34,-0.286,-0.0447,-0.204,-0.124
GGGGTGC,0.0283,0.0443,0.789,1.65,-0.0485,2.06,0.164,0.0696,-0.0453,0.12
GACCTCG,0.0289,-0.0593,-0.732,-0.522,-0.053,-0.935,-0.0163,-0.09,0.063,-0.0472
CCTGAAC,-0.0282,-0.128,0.0439,0.0598,0.015,-0.0538,0.0284,-0.115,-0.161,-0.111
TTTACAC,0.058,-0.00442,0.166,-1.08,0.0659,0.0651,0.0516,-0.0431,0.0763,0.0793
CGAAATC,-0.0406,-0.02,-0.0613,-0.106,-0.00536,-0.624,-0.0373,-0.211,-0.000313,0.0189
TCTAGGT,-0.097,-0.181,0.339,1.12,-0.196,1.56,-0.131,-0.0643,-0.267,-0.178
TGTACAA,0.129,0.0146,0.244,0.393,-0.0564,0.587,0.075,-0.014,0.118,0.134
GGTCTAC,0.116,0.155,0.463,0.984,-0.0259,1.8,0.167,0.126,0.13,0.184
GCCAAGG,-0.0745,0.00336,0.223,1.09,-0.0693,0.888,0.0104,0.0459,-0.0749,0.00531
CCATTCC,-0.11,-0.129,-0.25,-0.164,-0.195,-0.674,-0.00987,-0.13,-0.00826,0.0352
